# Measurements taken from ChEMBL document CHEMBL4888484, “Replenishing the malaria drug discovery pipeline: Screening and hit evaluation of the MMV Hit Generation Library 1 (HGL1) against asexual blood stage Plasmodium falciparum ,using a nano luciferase reporter read-out” (2022).
# Out of some 150,000 compounds screened, about 540 (0.36%) showed an effect of 50% or more. This is one part of the list.
# Test system: Plasmodium falciparum
# Experiment: Primary screen in NF54 nanoGlo assay, in single point, at 2uM, 72h; a lower Z score goes with more inhibition
# Assay type: functional, Erythrocyte
# Details: timepoint 72 hour
Structure (SMILES),% Inhibition [%],Z score
Cc1cc(NC(=O)N2CCC[C@@H]2CCCO)no1,-7,0.94
Cn1cc(-c2cc(-c3cc(F)c(F)c(F)c3)nc(N)c2C#N)cn1,-6,1.16
O=C(Cc1ccccc1F)Nc1cc(-c2ccccn2)no1,-14,1.34
CN(Cc1ccc(Cl)s1)C[C@H](O)COCc1cccs1,2,-0.35
Cn1nccc1[C@@H]1CCCN1Cc1ccc(N)nc1,-14,2.42
COc1ccc(NC(=O)Nc2ccc3c(c2)CCN3S(=O)(=O)c2ccccc2)c(OC)c1,-5,0.71
COc1cccc(C2CN(C(=O)c3ccccc3)CC2C(=O)NCc2ccc(F)cc2)c1OC (stereo not given),-11,1.12
Cc1nc(CN(C)C(=O)C[C@]2(c3ccccc3F)CC(=O)N(C3CCCCC3)C2=O)cs1,4,-0.73
COc1ncc(CNc2cccc3c2CCNC3=O)c(C)n1,-8,1.3
O=C(NCc1nc(Cn2cccn2)no1)NC1CCCCC1,-9,1.23
COCC1(CNC(=O)c2cnc(-c3csc(C)n3)nc2O)CCCC1,-13,2.53
O=S(=O)(Nc1ccn2ccnc2c1)c1cc(F)cc(Cl)c1,-1,0.1
CCc1c(C(=O)N(C)c2ncccc2F)nnn1-c1ccc(OC(C)C)cc1,-12,1.22
COCCc1nc(-c2ccc3c(c2)ncn3CCO)n(CC(F)(F)F)n1,-5,0.94
Nc1ccccc1-c1ccccc1N(c1ccccc1)c1ccccc1,-8,0.97
O=C(c1ccco1)N(Cc1ccccc1OS(=O)(=O)c1ccc(F)cc1)CC1CC1,-9,1.17
O=C(Nc1cccc(Cc2nn[nH]n2)c1)N[C@@H](C1CC1)C(F)(F)F,-4,0.67
COc1ccc2c(c1)CCN(c1cncc(C(=O)N3CCOCC3)n1)CC2,5,-1.01
COc1ccc(CN2C[C@@H](CO)[C@H](NC(=O)c3ccncc3)C2)cc1C,-10,1.78
O=C(NCCn1nc(C2CC2)ccc1=O)c1cc(-c2cccc3ccccc23)n[nH]1,-9,1.76
COc1cccc(OCc2nc(C(=O)NCc3ccncc3C)co2)c1,-17,1.84
COCc1cc(=O)n(CC(=O)Nc2ccc(Cl)cc2)c(N2CCCC2)n1,5,-0.75

Structure (SMILES),% Inhibition [%],Z score
Cc1ccc(-c2cn[nH]c2[C@H]2CCCN(C(=O)c3cc4ncccn4n3)C2)cc1,5,-0.71
Cc1ccccc1OCC(=O)N1CCC[C@H](Oc2ncc(F)cn2)C1,8,-1.1
COc1cc(O)c(C(=O)Cc2csc(C)n2)cc1C,-4,0.58
CO[C@H]1CN(C(C)C)C[C@@H]1NC(=O)c1ccc(-c2cnc(N)nc2)cc1,-13,1.81
CC[C@H](C)N(Cc1csc(COc2ccccc2C)n1)C(=O)c1ccc(Cl)cc1,-3,0.49
O[C@@H](c1ncnn1-c1cccc(F)c1)C1CCCCC1,-11,1.36
CCN1CCN(C(C)(C)CNC(=O)C[C@H]2CCOC2)CC1,-11,2.1
CCCN1C[C@@H](NCc2ccccc2-c2ccc(C)o2)CC1=O,-5,0.84
O=C(COC[C@H]1CCCO1)N1CCC(c2ccc(F)c(F)c2)CC1,-12,1.27
CNc1ccnc(N2CCC3(CCC(=O)N([C@H]4CC[C@H](O)CC4)C3)CC2)n1,-2,0.35
CC1=C(C#Cc2ccccc2)c2ccccc2O[C@@]1(c1ccccc1)N1CCCCC1,-1,0.11
CCn1ccc(C(=O)N2CCC[C@H](CN3CCOCC3)CC2)n1,8,-1.31
COCCn1cc(C(=O)N[C@H]2CCCc3c2[nH]c2c(Cl)cccc32)c2ccccc2c1=O,5,-0.6
COCCN(CC#N)Cc1cccs1,-19,1.97
CC[C@H](C)C(=O)N1CCN(c2ncccc2-c2nnc(C(C)C)o2)CC1,-10,0.94
CCc1ccc(C(=O)N2CCC3(CCC(=O)N3)CC2)s1,-1,0.23
OC[C@H]1CCCN(CCNc2ncc(Cl)cc2Cl)C1,-16,2.05
COc1cc(Cn2cnc(-c3ccccc3)cc2=O)cc(OC)c1,21,-2.81
Cc1ccccc1-c1noc(C[C@H]2CCCN(S(=O)(=O)N3CCCC3)C2)n1,12,-1.61
Cc1ccc(C)n1-c1ccc(Cl)c(C(=O)Nc2cccnc2N(C)C)c1,27,-3.94
Cc1cc(C(=O)NC2CCN(c3cc(C)[nH]n3)CC2)[nH]n1,-15,1.92
O=C(N[C@]1(C(=O)O)CCCc2ccccc21)c1csc(-c2cccs2)n1,-12,2.17

Structure (SMILES),% Inhibition [%],Z score
Cc1ccc(OC(=O)C2CCC(N3C(=O)C4CCCCC4C3=O)CC2)cc1 (stereo not given),3,-0.34
O=c1[nH]c2ccc(-c3csc(-c4ccco4)n3)cc2[nH]1,-14,2.25
COc1ccc(C[C@@](C#N)(CC(=O)Nc2ccccc2)c2nc3ccccc3[nH]2)cc1,1,-0.18
O=C1[C@@H]2CCCN2C(=O)N1Cc1noc(-c2ccoc2)n1,0,0.03
O=C(CC1CCCC1)N1CCC[C@@H]1CCc1noc(C2CC2)n1,-12,1.94
O=C(c1ncccc1O)N1CCCC1CC(O)c1ccc(F)cc1 (stereo not given),-5,0.6
CN(Cc1ncnn1C)C(=O)NC(C1CCCC1)C1CCCC1,2,-0.32
CCn1cc(S(=O)(=O)NC[C@H]2Cn3cccc3CN2Cc2cccnc2)cn1,6,-1.13
O=C1CCCC[C@@](Cc2cccnc2)(C(=O)NCc2ccccn2)N1,5,-0.54
C=CCn1ccc2ccn(CCN3CCCCC3)c(=O)c21,-19,1.63
Oc1cc2c(cc1-n1cnnc1)CCCC2,-7,0.66
CCS(=O)(=O)N1CCC(C(=O)N2CCCCCC2)CC1,-3,0.47
C=CCn1ncc(CN(Cc2cccnc2)C2CCCCC2)c1C,-8,1.27
CCc1nc(OCC(=O)NCCCOC)c2c(-c3ccc(F)cc3)noc2n1,4,-0.56
O=C(Nc1ccc2ccccc2c1)c1cccc(C(=O)Nc2ccc3ccccc3c2)c1,2,-0.37
COc1ccc(Br)c(C(=O)N2CCC(n3cnc4ncccc4c3=O)CC2)c1,-11,1.82
COc1ccc(-c2c[n+](-c3ccc(Cl)cc3)c3n2CCCCC3)cc1,64,-6.22
CCOC(=O)CN(C(=O)c1cc2nccnc2cc1F)C(C)(C)C,2,-0.37
Cc1cc(C)cc(NC(=O)[C@H]2CCCN(S(=O)(=O)c3cc4c(cc3C)NC(=O)CO4)C2)c1,-13,1.48
O=S(=O)(CC1CCC1)N1CCNC[C@H]1c1ccccc1,5,-1.05
COc1cc([C@@H]2CCCCCN2)cc(Cl)c1OC,-39,4.59
CC(C)c1cc(C(=O)O[C@H](c2cnn(C)c2)C(F)(F)F)on1,-11,1.45

Structure (SMILES),% Inhibition [%],Z score
C[C@H]1CCCN(CC(=O)Nc2cc(S(=O)(=O)N3CCCCC3)ccc2Cl)C1,-15,1.52
Cc1nc([C@H](O)C2CCCCC2)n(C(C)(C)C)n1,-13,2.21
CC(C)n1cncc1CN1CCO[C@H](c2ccc(Cl)cc2)C1,3,-0.38
O=C(Cc1noc(CN2CCCCCCC2=O)n1)NC1CCCCC1,9,-1.01
CN(Cc1ccsc1)C(=O)c1cccs1,-2,0.22
Cc1ccc(CN2CCN(C(=O)c3cc(C(C)C)nn3C)[C@@H](C)C2=O)cc1,-8,1.54
C[C@H](C#N)CN(C)S(=O)(=O)NCc1nc(N(C)C)no1,-5,0.73
Cc1cc(OCc2nc(CC(=O)Nc3nnc(C4CC4)s3)cs2)ccc1Cl,-15,2.79
CC1CC(CC(=O)N(C)C(C)CC#N)CC(C)(C)C1 (stereo not given),0,0.04
O=C1NC(=O)[C@@]2(CCCN(c3ncnc4[nH]ccc34)C2)N1,1,-0.13
CCNc1nc(C)c(-c2nc(CC(N)=O)n[nH]2)s1,5,-0.66
Cc1cccc(-c2cn(CC3CC(F)(F)C3)nn2)n1,-10,1.48
COC[C@H]1CCCCN1C(=O)c1coc(CN2CCN(Cc3ccccc3)CC2)n1,5,-0.91
CCCN1C=NS(=O)(=O)c2cc(C(=O)Nc3ccccc3OC)ccc21,-8,1.23
C#CCNC(=O)c1ccccc1Br,-1,0.2
CCOc1ccccc1CNC(=O)c1ncoc1-c1cccs1,2,-0.22
O=C1c2ccccc2C(c2ccc(O)cc2)(c2ccc(O)cc2)N1c1ccccc1,-11,1.48
COc1ccc([C@H](C)NC(=O)c2cc(NC(C)=O)cc3nc(C)ccc23)cc1,-6,0.78
Cc1cnccc1CN(C)C(=O)c1cccn1C1CC1,0,0.08
